From PubChem BioAssay AID743279 (National Center for Advancing Translational Sciences (NCATS), 2014)
The whole screen tested about 360,000 compounds, of which about 17,000 (4.7%) were called active. The shares of active, inactive and inconclusive entries below differ from those in the screen. Cut-off read from the data, not from the text of the source: active = activity change below about -50%; inconclusive = mostly about -30% to -49%; inactive = weaker than that. Where a SMILES comes first, the peptide text is derived from it. [ ]: non-standard residue; d: D form. The star is where a group is joined. ξ: configuration not given here. ξF = NC(Cc1ccccc1)C(=O)O; Cbz = O=C(OCc1ccccc1)*

Test: qHTS for Inhibitors of Inflammasome Signaling: IL-1-beta AlphaLISA Primary Screen
Conditions: THP-1 LPS/ATP IL-1B secretion, 16 h; at 57.5 µM, active compounds read low
How it was run: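 THP-1 cells pretreated 1 hr with compounds (up to 57.5 uM final), then stimulated with LPS (250 ng/mL final) plus ATP (1.25 mM final); secreted IL-1B measured by AlphaLISA after 16 hr, decreased signal indicating inhibition.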
% is set by controls: 0 for no effect and ±100 for the full control effect.

Structure (SMILES) | activity change
CCCc1cc(=O)oc2cc(C)cc(OC(C)C(=O)NCCCN3CCOCC3)c12 (configuration not stated) | inconclusive: -48.2%
NS(=O)(=O)c1cccc(NC(=O)Cc2ccc(Cl)c(Cl)c2)c1 | inconclusive: -36.6%
O=C1N[C@@H](c2ccccc2)COC(=O)[C@@H](Cc2ccc(F)cc2)C/C=C\C[C@H]1CC(=O)N(CCO)Cc1ccccc1 | inconclusive: -38%
COc1ccccc1C=C1SC(=S)NC1=O | inactive: 0%
O=C(CN1C(=O)NC(Cc2c[nH]c3ccccc23)C1=O)NCCc1ccccc1 (configuration not stated) | inactive: -27%
COc1ccc(CNc2nc(NCc3ccc(OC)c(OC)c3)n(C(=O)c3cccs3)n2)cc1OC | inconclusive: -30.6%
CC(C)c1ccc(S(=O)(=O)N2CCN(C(=O)n3ccnc3)CC2)cc1 | inconclusive: -36.9%
O=C(c1cc2sccc2n1Cc1ccc(F)cc1)N1CCCc2ccccc21 | inconclusive: -38.9%
O=C(Nc1nc2ccc(F)cc2s1)c1ccccn1 | active: -95.5%
O=C(c1cc(COc2ccc(F)cc2Cl)on1)N1CCN(C2CCCC2)CC1 | inconclusive: -37.2%
Cc1cc(C)nc(SCC(=O)c2ccc3c(c2)OCCO3)n1 | inconclusive: -41.4%
CCOc1ccccc1C(=O)Nc1cccc2cccnc12 | inactive: -8.18%
CCC1=Nc2cc(C(=O)NCCCN3CCN(C)CC3)ccc2Sc2ccccc21 | inconclusive: -34.4%
Nc1cccc(-c2c[nH]c3ncc(-c4cccnc4)cc23)c1 | active: -55%
O=c1c(C=NCCCn2ccnc2)c(-c2ccccc2)[nH]n1-c1nc2ccccc2s1 | inconclusive: -39%
O=[N+]([O-])c1cccc(CSc2nc3ccccc3[nH]2)c1 | inconclusive: -39.1%
CC(C)CNC(=S)NNC(=O)c1csc2c1CCC(C)C2 (configuration not stated) | inconclusive: -39.9%
COC(=O)[C@@]12C[C@@H](CC(=O)NCCc3ccccc3OC)C(=O)N(Cc3ccc4c(c3)OCO4)C1=CCC(C)(C)C2 | inconclusive: -41.9%
COc1ccc(NC(=O)Nc2cc(C)ccc2F)cc1 | inconclusive: -34.2%
O=c1cc(-c2ccco2)oc2ccccc12 | inconclusive: -40.6%
O=C(Nc1ccc(-c2csnn2)cc1)C(Cl)(Cl)Cl | inconclusive: -34.6%
COCCNc1cc(C)nc2c3c(C)cc(C)nc3nn12 | inconclusive: -44.1%

Structure (SMILES) | activity change
CC1=C(C(=O)N2CCCC(C(=O)c3cccc4ccccc34)C2)OCCO1 (configuration not stated) | inconclusive: -34.4%
COc1cc2ccc3c(CCN(C)C)cc(OC)c(OC)c3c2cc1OC | inconclusive: -47.4%
O=c1ccc2cc(S(=O)(=O)N3CCN(c4ccccc4F)CC3)ccc2[nH]1 | inactive: 45.5%
Cn1c2ccccc2c2cnn(CC(=O)Nc3cccc(F)c3)c(=O)c21 | inconclusive: -49.8%
Cc1ccc2c(c1)C1CC(C)(O2)N(c2cccc(C(=O)N3CCN(c4ccccn4)CC3)c2)C(=O)N1 (configuration not stated) | inconclusive: -40.7%
Cc1ccc(OCC(O)Cn2c(=N)n(CCN3CCOCC3)c3ccccc32)cc1 (configuration not stated) | inconclusive: -34.8%
CCN(CC)C(=O)[C@H]1CC(CC(=O)NC/C=C(\C)CCC=C(C)C)C(=O)N2CCc3c([nH]c4ccccc34)[C@]12C (some centres not stated) | inconclusive: -41%
CS(=O)(=O)N(CC(=O)Nc1ccc(F)c(F)c1)c1cccc([N+](=O)[O-])c1 | inconclusive: -32.5%
COc1ccccc1NC(=O)NNC(=O)c1ccc2ccccc2c1O | inactive: 48%
COc1ccc(NC(=O)/C=C/c2c(Cl)nc3ccccn23)cc1 | inconclusive: -38.7%
O=C(Nc1ccccn1)c1ccc([N+](=O)[O-])o1 | active: -91.6%
CC[C@H](C)[C@@H](NC(=O)O[C@@H]1C(=O)c2cc(OC)ccc2O[C@H]1c1ccc(OC)c(Br)c1)C(=O)OC | inconclusive: -36.1%
CCOC(=O)/C(=N/Nc1ccc(Cl)cc1)S(=O)(=O)c1ccccc1 | active: -69.3%
CC1(C)CC(=O)C=C(Nc2ccc(Cl)cc2)C1 | inconclusive: -32.9%
O=C(O)CNC(=O)C(CS)Cc1ccccc1 (configuration not stated) | inconclusive: -46.5%
CCc1nc(CN2CCN(c3cc(C(F)(F)F)ccn3)CC2)c(C)[nH]1 | inactive: 0%
CCN1CCN(CCNC(=O)C2CCCN(Cc3nc(-c4cccc(Cl)c4)oc3C)C2)CC1 (configuration not stated) | inconclusive: -32.8%
CC(C)c1ccc(Nc2cnn(C34CC5CC(CC(CC(=O)O)(C5)C3)C4)c(=O)c2Cl)cc1 | inconclusive: -42.7%
Cc1ccc(C(=O)O/N=C(\N)c2cccnc2)cc1[N+](=O)[O-] | inactive: -2.3%
Cc1ccc(-c2c(C(=O)NCc3ccc(F)cc3)oc(=O)c3ccccc23)cc1 | inconclusive: -39.3%
CC1(C)SC(=S)N(/N=C/c2ccccc2O)C1N(O)C(=O)Nc1ccccc1 (configuration not stated) | inconclusive: -36.9%
CCCC(=O)NC(=S)Nc1cccc(NC(=O)c2ccccc2)c1 | inconclusive: -46.8%

Structure (SMILES) | activity change
O=C(O)CCC(NC(=O)c1cncc(O)c1)C(=O)O (configuration not stated) | inactive: 20.6%
CCN(c1ccccc1)S(=O)(=O)c1ccc2c(c1)CCCN2C(C)=O | inactive: 22.4%
COc1cc(/C=C/C(=O)Nc2cccc(S(=O)(=O)NC3=NCCCCC3)c2)ccc1OCC#N | active: -56.1%
COc1ccc(-n2nc3c(c2NC(C)=O)CS(=O)(=O)C3)cc1 | inconclusive: -30.6%
Cc1ccc(NC(=O)CC2COc3ccccc3O2)cc1 (configuration not stated) | inconclusive: -42%
CC(=O)NC(=O)Nc1sc(=S)n(C)c1C | inconclusive: -45.6%
CCN(C#N)c1nc(NC(C)C)nc(NC(C)(C)C)n1 | inactive: 42.8%
CCc1ccc(NSc2ccccc2[N+](=O)[O-])cc1 | inconclusive: -41.9%
Cc1ccc(NC(=O)c2ncn(CCCN[C@H](C)c3cccc4ccccc34)n2)cc1C | inactive: -3.72%
CCOC(=O)c1c(NC(=O)COC(=O)c2ccccn2)sc2c1CCC2 | inactive: 0%
CCOC(=O)C(Cc1ccccc1)NC(=O)CNC(=O)CNC(=O)OCc1ccccc1 (stereo not drawn) (Cbz-Gly-Gly-[ξF]-OEt) | active: -88.1%
Cc1cc(C(=O)COC(=O)c2ccccc2O)c(C)n1Cc1cccs1 | inconclusive: -37.9%
CCNC(=S)NN=C1c2ccccc2-c2ccccc21 | inconclusive: -32.5%
O=C(CN(C(=O)CCC(=O)Nc1nccs1)c1cccc(F)c1)NCc1ccc(F)cc1 | inactive: 19.9%
CCNC(=O)/C(C#N)=C/c1c(N2CCCCCC2)nc2c(C)cccn2c1=O | inconclusive: -38.7%
CN1C(=O)CC(C(=O)Nc2ccc(F)cc2)SC1=Nc1ccc2c(c1)OCO2 (configuration not stated) | inconclusive: -46.8%
CCOc1ccc(CNC(=O)Cn2ccc3cc(S(=O)(=O)N4CCCCCC4)ccc32)cc1 | inconclusive: -31.2%
O=S(=O)(Cc1cccc(F)c1)c1c[nH]c2ccccc12 | inconclusive: -31.9%
O=c1[nH]cnc2c1c(-c1ccccc1)cn2-c1ccc(Br)cc1 | inconclusive: -47.2%
CCOc1ccc(C(=S)N2CCCC2)cc1OC | inactive: 0%
Cc1cccc(NC(=O)COc2coc(CN3CCN(c4ccccc4)CC3)cc2=O)c1 | inactive: 11.7%
Cc1cc(N2CCN(C)CC2)nc2ccc(NC(=S)N3CCN(c4ccccn4)CC3)cc12 | inconclusive: -33.8%

Structure (SMILES) | activity change
Nn1c(Cc2cccc3ccccc23)nnc1SCCOc1ccc(F)cc1 | inconclusive: -42.3%
CCCSCCCNC(=O)c1ccc(NC(=O)C2=CSCCO2)cc1 | inconclusive: -35.2%
Cc1csc(N2CCCC2c2nc3cc(Cl)c(N4CCCCC4)cc3n2CCOCCO)n1 (configuration not stated) | inconclusive: -31%
O=c1c2ccccc2nnn1CSc1nc2sc3c(c2c(=O)n1CC1CCCO1)CCC3 (configuration not stated) | inconclusive: -30.5%
S=c1[nH]nc(-c2cc(-c3ccccc3)n[nH]2)n1/N=C/c1ccc(Cl)cc1 | inactive: 105%
c1cnc2nc3c4ccccc4c4ccccc4c3nc2c1 | inconclusive: -36.5%
CCc1nc2ccc(C(=O)NCc3ccccc3OC)cn2c1N(CC)CCN(C)C | inconclusive: -32.5%
CC1=CC2=NC(=O)/C(=C\c3cccn3CCOc3ccc(C)c(C)c3)C(=N)N2O1 | active: -60.2%
O=C(/C=C/c1ccc(Cl)cc1)N1CCN(c2c(Cl)cccc2[N+](=O)[O-])CC1 | active: -75.7%
Cc1ccc(C2CC(c3cccs3)=NN2C(=O)CCl)cc1 (configuration not stated) | active: -106%
COc1ccc(CC(=O)N2CCN(c3ccccc3OC)CC2)cc1 | inactive: -1.14%
Fc1ccc(-n2nnnc2-c2cnc(-c3cccs3)nc2C(F)(F)F)cc1 | active: -80.5%
CC(C)(C)[C@@H]1COC(=O)[C@H](Cc2ccc(F)cc2)CC/C=C\C[C@H](CC(=O)N(CCO)Cc2ccccc2)C(=O)N1 | inconclusive: -38.7%
COc1ccccc1C1=NC(c2ccc(F)cc2)N=C1C (configuration not stated) | inconclusive: -42.7%
CC1=C(C(=O)Nc2ccccc2C(=O)N2CCCCC2)SCCO1 | inactive: 13.4%
CCCCCc1c(-c2ccc(F)cc2)ncn1CCc1ccccc1OC | active: -50.8%
Cc1cc(OC(F)F)ccc1NC(=O)Nc1ccc([N+](=O)[O-])cc1 | inconclusive: -43.4%
Cc1csc2ncnc(NC3CCN(Cc4ccccc4)CC3)c12 | inconclusive: -34.7%
COCC(C)N=C1NN=C(c2cc(C)n(Cc3ccccc3Cl)c2C)CS1 (configuration not stated) | inconclusive: -44.5%
ON=C(CCc1ccccc1)CCc1ccccc1 | inconclusive: -46.2%
Cc1c([N+](=O)[O-])cc(C(=O)Nc2ccc(Cc3ccncc3)cc2)cc1[N+](=O)[O-] | inconclusive: -32.2%
